# Laboratory results published in the supplement of paper PMC8285479.
# Structures can show the parent of a compound that is named as a salt. ± gives the standard deviation of the averaged measurements. Over roughly 1,900 compounds, “normalised cell viability (NPI; 0 = phenylarsine oxide control, 1 = DMSO control)” has its median near 1; the lowest 2% begin near 0.039. The list shows a part of the results.
# System: NCI-H1944
# Assay: normalised cell viability (NPI; 0 = phenylarsine oxide control, 1 = DMSO control) (fraction of DMSO control); NCI-H1944 is a non-small cell lung cancer line; higher = more viable cells (less compound toxicity)
# Settings: 6 days
# [1] = glucocorticoid arm: hydrocortisone 2.75 uM co-treatment, compound 1 µM
# [2] = glucocorticoid arm: hydrocortisone 2.75 uM co-treatment, compound 5 µM
# [3] = glucocorticoid arm: hydrocortisone 2.75 uM pre-treated 2 days and continued, compound 1 µM
# [4] = glucocorticoid arm: hydrocortisone 2.75 uM pre-treated 2 days and continued, compound 5 µM
# [5] = glucocorticoid arm: vehicle, compound 1 µM
# [6] = glucocorticoid arm: vehicle, compound 5 µM
# 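Also: CTB read-out in 384-well plates, mean of triplicate wells, normalised per plate against 1 µM phenylarsine oxide and 0.1% DMSO, compounds added 24 h after seeding.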
Structure (SMILES),normalised cell viability [1],normalised cell viability [2],normalised cell viability [3],normalised cell viability [4],normalised cell viability [5],normalised cell viability [6]
CN1CCc2cccc(Cl)c2CC1,0.9977 ± 0.004,1.006 ± 0.0075,1.01 ± 0.026,0.9743 ± 0.0085,0.9863 ± 0.0015,0.9927 ± 0.0025
O=C(NCC1CCOCC1)c1cnc(Nc2ccc(Cl)cc2Cl)nc1C(F)(F)F,1.04 ± 0.015,1.02 ± 0.015,1.04 ± 0.017,1.001 ± 0.0081,1.017 ± 0.0058,1.003 ± 0.0058
COC(=O)[C@@H](N)CCCNC(=N)N[N+](=O)[O-] [NG-Nitro-L-arginine methyl ester hydrochloride],1.02 ± 0.018,1.01 ± 0.038,1.02 ± 0.022,0.988 ± 0.023,1.017 ± 0.0058,1.02 ± 0.015
Cn1c(CCCC(=O)O)nc2cc(N(CCCl)CCCl)ccc21 [bendamustine hydrochloride],1.02 ± 0.011,0.348 ± 0.02,1.007 ± 0.0058,0.7867 ± 0.0031,0.9937 ± 0.006,0.0218 ± 0.0032
"CN1CCc2cc(O)cc3c2[C@H]1Cc1ccc(O)c(O)c1-3 [R(-)-2,10,11-Trihydroxyaporphine hybrobromide]",0.9983 ± 0.0029,0.993 ± 0.0087,0.994 ± 0.014,0.953 ± 0.0099,0.999 ± 0.01,1.01 ± 0.034
O=C1CC[C@@]2(O)[C@H]3Cc4ccc(O)c5c4[C@@]2(CCN3CC2CC2)[C@H]1O5 [Naltrexone HCl],1.03 ± 0.011,1.03 ± 0.011,1.03 ± 0.015,1.02 ± 0.022,1.007 ± 0.0058,1.003 ± 0.0058
O=C1CC[C@@]2(O)[C@H]3Cc4ccc(O)c5c4[C@@]2(CCN3CC2CC2)[C@H]1O5 [Naltrexone hydrochloride],1 ± 0.02,0.995 ± 0.039,1.02 ± 0.01,1.01 ± 0.038,1 ± 0.0095,1.013 ± 0.0058
"CN1CC[C@@]2(C)c3cc(O)ccc3N(C)C12 (single isomer, unassigned; (-)) [(-)-Eseroline fumarate]",0.9967 ± 0.0058,0.972 ± 0.013,1.03 ± 0.045,0.971 ± 0.011,0.9967 ± 0.0042,0.996 ± 0.012
CCN1C[C@]2(C)CC[C@H](O)[C@]34C1[C@@H](C[C@H]23)[C@@]1(O)C[C@H](OC)[C@H]2C[C@@H]4[C@@H]1[C@H]2O [Karakoline],0.9937 ± 0.0065,1 ± 0.019,1.007 ± 0.0058,1.04 ± 0.082,0.987 ± 0.001,0.9897 ± 0.0096
CC(=O)[C@H]1CC[C@H]2[C@@H]3CC[C@H]4C[C@H](O)CC[C@]4(C)[C@H]3CC[C@]12C [5alpha-Pregnan-3alpha-ol-20-one],1.013 ± 0.0058,1.05 ± 0.015,0.892 ± 0.21,1.07 ± 0.061,1.013 ± 0.0058,1.01 ± 0.011
CC(C)(C)c1cc(C=C(C#N)C#N)cc(Br)c1O,0.963 ± 0.072,1.01 ± 0.014,1.001 ± 0.0082,1.02 ± 0.01,0.9947 ± 0.0049,0.9947 ± 0.0061
C[Se]C[C@H](N)C(=O)O [Se-(methyl)selenocysteine hydrochloride],1.006 ± 0.0069,1.02 ± 0.015,1,0.859 ± 0.28,1.006 ± 0.0069,1.01 ± 0.016
CCCN1CCC[C@@H](c2cccc(C#N)c2)C1 [S(-)-DS 121 hydrochloride],1.017 ± 0.0058,0.972 ± 0.034,1.01 ± 0.01,0.985 ± 0.033,1.02,1.04 ± 0.047
CC(NC(C)(C)C)C(=O)c1cccc(Cl)c1 (stereo unspecified) [Amfebutamone HCl],1 ± 0.014,1.01 ± 0.015,1.01 ± 0.01,0.999 ± 0.0098,1.007 ± 0.0058,1.005 ± 0.0087
CC(NC(C)(C)C)C(=O)c1cccc(Cl)c1 (stereo unspecified) [Bupropion hydrochloride],1.003 ± 0.0061,1.013 ± 0.0058,0.9973 ± 0.0038,1 ± 0.014,0.985 ± 0.0087,0.988 ± 0.011
N[C@]1(C(=O)O)CC[C@H](C(=O)O)C1 (racemic) [trans-(±)-ACPD],0.992 ± 0.017,1.001 ± 0.0085,0.9957 ± 0.0067,0.9975 ± 0.0035,0.986 ± 0.012,0.987 ± 0.0099

Structure (SMILES),normalised cell viability [1],normalised cell viability [2],normalised cell viability [3],normalised cell viability [4],normalised cell viability [5],normalised cell viability [6]
Oc1ccc2c3c1O[C@H]1c4[nH]c5ccccc5c4C[C@@]4(O)[C@@H](C2)N(CC2CC2)CC[C@]314 [Naltrindole hydrochloride],0.997 ± 0.013,1.02 ± 0.026,1.01,1.033 ± 0.0058,0.9983 ± 0.0021,1.01 ± 0.023
CN1[C@@H]2C[C@@H](OC(=O)[C@H](CO)c3ccccc3)C[C@H]1[C@@H]1O[C@@H]12 [Scopolamine HBr],1 ± 0.011,0.986 ± 0.024,1.02 ± 0.017,1 ± 0.029,1.003 ± 0.0061,0.991 ± 0.0066
CN1[C@@H]2C[C@@H](OC(=O)[C@H](CO)c3ccccc3)C[C@H]1[C@@H]1O[C@@H]12 [(-)-Scopolamine hydrobromide],0.9923 ± 0.0015,0.983 ± 0.024,0.87 ± 0.23,0.987 ± 0.022,1.001 ± 0.009,0.9953 ± 0.0042
COc1ccc(N(C(=O)Oc2c(C)cccc2C)c2ccnc(Nc3ccc(N4CCN(C)CC4)cc3)n2)c(OC)c1,1.027 ± 0.0058,1.04 ± 0.043,1.027 ± 0.0058,0.672 ± 0.16,1.003 ± 0.0058,1.01
Cc1sc2ccccc2c1CC1=NCCN1 [Benazoline oxalate],0.999 ± 0.011,1.01 ± 0.017,0.992 ± 0.016,1.02 ± 0.021,0.9927 ± 0.0067,1.01
O=C(O)[C@@H]1[C@H](C(=O)O)[C@H]2CC[C@@H]1O2 [Endothall],1.01 ± 0.01,1.05 ± 0.01,1.007 ± 0.0058,1.07 ± 0.015,0.9967 ± 0.0025,1.007 ± 0.0058
N[C@@H]1C[C@H]1c1ccccc1 [Tranylcypromine (2-PCPA) HCl],0.9843 ± 0.0095,0.994 ± 0.016,0.981 ± 0.015,0.995 ± 0.013,0.9983 ± 0.0011,1.003 ± 0.0058
N[C@@H]1C[C@H]1c1ccccc1 [Tranylcypromine hydrochloride],0.9943 ± 0.0029,0.966 ± 0.013,1.01 ± 0.024,0.97 ± 0.015,0.995 ± 0.0062,0.9807 ± 0.0031
CCCN(CCC)[C@@H]1CCc2c(F)ccc(O)c2C1 [R(+)-UH-301 hydrochloride],1.013 ± 0.0058,1.017 ± 0.0058,1.03 ± 0.021,1.017 ± 0.0058,1.02,1.017 ± 0.0058
NCC(CC(=O)O)c1ccc(Cl)cc1 (racemic) [(±)-Baclofen],1.006 ± 0.0069,1.03 ± 0.021,1.002 ± 0.0068,1.01 ± 0.037,0.9827 ± 0.004,0.954 ± 0.012
COC[C@H]1OC(=O)c2coc3c2[C@@]1(C)C1=C(C3=O)[C@@H]2CCC(=O)[C@@]2(C)C[C@H]1OC(C)=O [Wortmannin],0.857 ± 0.04,0.706 ± 0.025,0.833 ± 0.017,0.737 ± 0.029,0.96 ± 0.012,0.89 ± 0.017
CNCCc1ccc(O)c(O)c1 [N-Methyldopamine hydrochloride],1.002 ± 0.0068,0.9903 ± 0.0067,1.01,1 ± 0.024,1.003 ± 0.0061,1.001 ± 0.0078
Clc1cnc(Oc2ccc(Oc3ncc(Cl)cc3Cl)cc2)c(Cl)c1,0.9947 ± 0.0092,0.9947 ± 0.0051,1.02 ± 0.026,1.01 ± 0.012,0.9823 ± 0.0055,0.9837 ± 0.0035
COc1ccc2c(c1)[C@]13CCCC[C@@H]1[C@H](C2)N(C)CC3 [Dextromethorphan hydrobromide monohydrate],0.99 ± 0.017,0.96 ± 0.01,0.997 ± 0.022,0.999 ± 0.018,0.9807 ± 0.0051,0.99 ± 0.0066
Cc1cccc(C(C)c2c[nH]cn2)c1C (stereo unspecified) [Medetomidine HCl],1.017 ± 0.0058,1.07 ± 0.023,1.01 ± 0.013,1.033 ± 0.0058,1.013 ± 0.0058,1.013 ± 0.0058
